Laboratory results published in the supplement of paper PMC7125110.
± gives the standard error. Variants at the background level are over-represented here.

B1: glmS ribozyme (parent)
chain: AUAAAAGCGCCAGAACUACAGAAAUGUAGUUGACGAGGAGGAGGUUUAUCGAAUUUUCGGCGGAUGCCUCCAAA

Key:
Conditions in all cases: with glucosamine-6-phosphate
glucosamine-6-phosphate [1] = variants of: B1; experiment: kcat; higher = faster cleavage; RNA array
In short: (§1)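 Tiles bearing barcoded ribozyme variants, transcribed in situ by E. coli RNA polymerase on sequenced MiSeq chips, were imaged over ~14 h at 37 °C using a hybridised Cy3 probe. Glucosamine-6-phosphate was supplied at 40 μM to 10 mM in HEPES/KCl/Mg(OAc)2 buffer. kobs came from one- or two-exponential decay fits to normalised per-tile medians, and weighted Michaelis–Menten fits then provided kcat and KM.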

glucosamine-6-phosphate [2] = variants of: B1; experiment: self-cleavage kobs at 2500 uM GlcN6P; higher = faster cleavage; RNA array
In short: as §1

glucosamine-6-phosphate [3] = variants of: B1; experiment: self-cleavage kobs at 40 uM GlcN6P; higher = faster cleavage; RNA array
In short: as §1

glucosamine-6-phosphate [4] = variants of: B1; experiment: self-cleavage kobs at 640 uM GlcN6P; higher = faster cleavage; RNA array
In short: as §1

glucosamine-6-phosphate [5] = variants of: B1; experiment: self-cleavage kobs at 160 uM GlcN6P; higher = faster cleavage; RNA array
In short: as §1

glucosamine-6-phosphate [6] = variants of: B1; experiment: self-cleavage kobs at 10000 uM GlcN6P; higher = faster cleavage; RNA array
In short: as §1

| Variant | kcat (glucosamine-6-phosphate [1]) [s⁻¹] | self-cleavage kobs at 2500 uM GlcN6P (glucosamine-6-phosphate [2]) [s⁻¹] | self-cleavage kobs at 40 uM GlcN6P (glucosamine-6-phosphate [3]) [s⁻¹] | self-cleavage kobs at 640 uM GlcN6P (glucosamine-6-phosphate [4]) [s⁻¹] | self-cleavage kobs at 160 uM GlcN6P (glucosamine-6-phosphate [5]) [s⁻¹] | self-cleavage kobs at 10000 uM GlcN6P (glucosamine-6-phosphate [6]) [s⁻¹] |
| --- | --- | --- | --- | --- | --- | --- |
| A33G U49C | < 1e-05 | < 1e-05 |  |  |  |  |
| A33U U56C | < 1e-05 |  |  |  |  |  |
| C34U A42U | < 1e-05 | < 1e-05 | < 1e-05 | < 1e-05 | < 1e-05 |  |
| G35U U54C | < 1e-05 |  |  | < 1e-05 | < 1e-05 |  |
| A36C G37U | < 1e-05 |  |  |  |  | < 1e-05 |
| A36G C68A | < 1e-05 |  | < 1e-05 |  |  | < 1e-05 |
| A36G C68U | < 1e-05 |  |  |  |  |  |
| A36U U55A C61A | < 1e-05 |  | < 1e-05 |  |  |  |
| G37A A52C | < 1e-05 |  |  |  | < 1e-05 |  |
| G37A G63A | < 1e-05 |  | < 1e-05 |  | < 1e-05 | < 1e-05 |
| G37C A39C | < 1e-05 | < 1e-05 |  |  | < 1e-05 |  |
| G37U A48G | < 1e-05 |  |  | < 1e-05 |  |  |
| G37U G66C | < 1e-05 |  |  |  |  |  |
| G37U U54C | < 1e-05 |  | < 1e-05 | < 1e-05 | < 1e-05 |  |
| G38A U54A | < 1e-05 | < 1e-05 |  |  |  |  |
| G38C C71G | < 1e-05 |  |  |  |  | < 1e-05 |
| G38C U45C | < 1e-05 |  |  |  | < 1e-05 |  |
| G38C U45G | < 1e-05 |  |  |  | < 1e-05 |  |
| G38U A39C | < 1e-05 |  |  | < 1e-05 | < 1e-05 |  |
| A39C C50U | < 1e-05 |  | < 1e-05 | < 1e-05 | < 1e-05 |  |
| A39U A52C | < 1e-05 |  | < 1e-05 |  | < 1e-05 |  |
| A39U C68A | < 1e-05 |  | < 1e-05 |  |  |  |
| G40C G60C | < 1e-05 | < 1e-05 |  | < 1e-05 |  |  |
| G41U A52C | < 1e-05 |  | < 1e-05 | < 1e-05 | < 1e-05 |  |
| G43A G60A | < 1e-05 |  |  |  |  |  |
| G43C G59A | < 1e-05 |  |  |  | < 1e-05 |  |
| G43U U69A | < 1e-05 |  |  |  |  |  |

| Variant | kcat (glucosamine-6-phosphate [1]) [s⁻¹] | self-cleavage kobs at 2500 uM GlcN6P (glucosamine-6-phosphate [2]) [s⁻¹] | self-cleavage kobs at 40 uM GlcN6P (glucosamine-6-phosphate [3]) [s⁻¹] | self-cleavage kobs at 640 uM GlcN6P (glucosamine-6-phosphate [4]) [s⁻¹] | self-cleavage kobs at 160 uM GlcN6P (glucosamine-6-phosphate [5]) [s⁻¹] | self-cleavage kobs at 10000 uM GlcN6P (glucosamine-6-phosphate [6]) [s⁻¹] |
| --- | --- | --- | --- | --- | --- | --- |
| U49A C68U | < 1e-05 |  |  |  |  |  |
| G51A G60U | < 1e-05 |  | < 1e-05 | < 1e-05 |  | < 1e-05 |
| G51U G66C | < 1e-05 | < 1e-05 |  |  |  | < 1e-05 |
| C58G C61A G63C A64U | < 1e-05 |  |  |  |  |  |
| G63C C70G | < 1e-05 |  | < 1e-05 |  |  | < 1e-05 |
| U2A A3U C50A |  |  | < 1e-05 |  |  | 3.38e-05 ± 1.2e-05 |
| A6C A12G |  |  | < 1e-05 | < 1e-05 | < 1e-05 |  |
| A6C A15G |  |  | < 1e-05 |  |  |  |
| A6C A48C C68U |  |  | < 1e-05 |  |  | < 1e-05 |
| A6C A48G G59A |  |  | < 1e-05 |  |  | < 1e-05 |
| A6C A52U C67G |  |  | < 1e-05 |  |  |  |
| A6C C8U A14G |  |  | < 1e-05 |  |  |  |
| A6C G37U U45C C61A |  |  | < 1e-05 |  |  |  |
| A6C G40U A48C |  |  | < 1e-05 |  |  |  |
| A6C G44A |  |  | < 1e-05 | < 1e-05 | < 1e-05 | < 1e-05 |
| A6G A14U C68A |  |  | < 1e-05 | < 1e-05 | < 1e-05 | < 1e-05 |
| A6G A36C A42C |  | < 1e-05 | < 1e-05 |  |  | < 1e-05 |
| A6G A42U U46A |  |  | < 1e-05 |  |  | < 1e-05 |
| A6G A48C U54C C68A |  |  | < 1e-05 |  |  | < 1e-05 |
| A6G A48G A53C |  |  | < 1e-05 |  |  | < 1e-05 |
| A6G C8A C58G |  |  | < 1e-05 |  |  | < 1e-05 |
| A6G C11A |  |  | < 1e-05 |  | < 1e-05 |  |
| A6G C16A A39C U46A |  |  | < 1e-05 |  |  | < 1e-05 |
| A6G C16A G38U |  |  | < 1e-05 |  |  |  |
| A6G C16U G32C G41U C68U |  |  | < 1e-05 | < 1e-05 |  |  |
| A6G C34U |  | < 1e-05 | < 1e-05 | < 1e-05 | < 1e-05 | < 1e-05 |
